Assay results from PubChem BioAssay AID652104 (National Center for Advancing Translational Sciences (NCATS), 2013).
Where “and” joins values, the source holds several entries; their conditions need not be identical. Identical values can stand only once. Among all 410,000 compounds or so, about 7,200 (1.8%) were called active. The inconclusive results got no clear call from the source; some entries with a clear call stand among them for comparison. Calls follow the shape of the dose curve; as a rule, active = well fitted activation curve with a large enough effect; inconclusive = small, poorly fitted or top-dose-only effect, or another doubt; inactive = no such curve, though single readings can be large or run the other way. A potency beside an inconclusive call is a rough fit, not a confirmed value.

test: qHTS of TDP-43 Inhibitors; conditions: TDP-43 expressing yeast growth rescue, BacTiter-Glo, 24 h; growth rescue (activation): at 46.1 µM (top of the series) unless noted; also: nearly all actives have a fitted effect of over 50% in size; as to growth rescue (activation): % of control where 0% means no effect
Summary of the method: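 Cell-based yeast growth screen: TDP-43 expression induced in galactose, inoculum OD600=0.02 after raffinose pregrowth to mid-log. Read-out BacTiter-Glo luminescence at 24 hr, 30 deg C; inhibition of toxicity seen as signal increase.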
Potency is read from the fitted curve at half-maximal effect; tags tell the direction and shape of the fitted curve.

Row | Structure (SMILES) | Potency | growth rescue (activation)
1 | CCCC(=O)NC(=S)Nc1cccc(NC(=O)c2ccccc2Cl)c1 | active: 11.2 µM | –
2 | Cc1cccc(-c2nnc(SCC3CNC(=O)O3)n2-c2ccc(Cl)cc2)c1 (stereo unspecified) | – | inactive: 19.2%
3 | CCOC(=O)c1sc(NC(=O)CN(CC)CC)c(C(=O)OCC)c1C | – | inactive: -13.3%
4 | Cc1cccc(-c2csc(N)c2C(=O)OC(C)C)c1 | active: 12.6 µM | –
5 | COc1cc(C(O)c2nc(-c3ccc4ccccc4c3)cs2)ccc1F (stereo unspecified) | inconclusive: 20 µM [activator, single point] | –
6 | CC(/C=N/n1c(-c2ccc(Cl)cc2)n[nH]c1=S)=C\c1ccco1 | inconclusive: 3.16 µM [activator, partial curve] | –
7 | O=S(=O)(NCC(c1ccco1)S(=O)(=O)c1cccs1)c1ccccc1 (stereo unspecified) | inconclusive: 25.1 µM [activator, partial curve, poor fit] | –
8 | COc1cccc(C(O)c2nc(-c3ccc(OC)nc3)cs2)c1 (stereo unspecified) | inconclusive: 2.82 µM [activator, partial curve] | –
9 | O=C(NCc1ccccn1)c1cc(-c2ccc(-c3ccccc3)cc2)nc2ccccc12 | inconclusive: 35.5 µM [activator, single point] | –
10 | CCc1ccc(-c2csc3ncn(Cc4ccc(C(=O)O)cc4)c(=O)c23)cc1 | inconclusive: 22.4 µM [activator, single point] | –
11 | Cc1ccc(NC(=O)Cc2noc3ccccc23)cc1 | inconclusive: 14.1 µM [activator, single point] | –
12 | COc1ccc(Cl)cc1C(=O)OCC(=O)c1ccc[nH]1 | inconclusive: 11.2 µM [activator, partial curve] | –
13 | COc1ccc(N(CC(=O)N2CCN(c3cccc(Cl)c3)CC2)S(=O)(=O)c2c(C)noc2C)cc1 | inconclusive: 794 nM [activator, full curve, poor fit] and inconclusive: 11.2 µM [activator, partial curve] | –
14 | CC(C)(C)C1CCC(=NOC(=O)c2ccc(F)cc2)CC1 (stereo unspecified) | – | inconclusive: -92.4% [activator]
15 | COc1ccc(C2C(Oc3ccccc3)C(=O)N2c2cc(C)ccc2C)cc1OC (stereo unspecified) | inconclusive: 2.51 µM [activator, partial curve] | –
16 | CCOC(=O)c1ccc(NC(=O)C2CCN(C(=O)N3CC(C)Oc4ccc(C)cc43)CC2)cc1 (stereo unspecified) | inconclusive: 35.5 µM [activator, single point] | –
17 | C/C(=N\NC(=S)NCCc1ccccc1)c1cccs1 | inconclusive: 8.91 µM [activator, partial curve] | –
18 | C=C(C)c1cccc(C(C)(C)NC(=O)Nc2ccc(C)cn2)c1 | active: 12.6 µM | –
19 | Clc1ncc(CSc2ccccc2)s1 | inconclusive: 28.2 µM [activator, partial curve] | –
20 | COc1ccccc1N1CCN(C(=O)c2cnn(-c3ccc(C)c(C)c3)c2C2CCN(C(=O)OC(C)(C)C)CC2)CC1 | inconclusive: 35.5 µM [activator, single point] | –
21 | Cc1ccc(N2CCN(C(=O)NCc3noc4ccccc34)CC2C)cc1 (stereo unspecified) | inconclusive: 3.98 µM [activator, partial curve, poor fit] | –
22 | COc1ccccc1-c1cccc([C@@H]2C[C@H]3[C@H](CON3C)CN2Cc2cc(Cl)cc(Cl)c2)c1 | – | inactive: 13.2%

Row | Structure (SMILES) | Potency | growth rescue (activation)
23 | CCCCC(=O)N=c1sc2cc([N+](=O)[O-])ccc2n1C | inconclusive: 2.24 µM [activator, partial curve] | –
24 | Cc1ccc(-c2nnc(NC(=O)c3ccc4c(c3)OCCO4)o2)c(C)c1 | inconclusive: 7.08 µM [activator, full curve] | –
25 | COc1cccc(CNC(=O)CSCc2cnn(-c3ccccc3)c2-n2cccc2)c1 | inconclusive: 31.6 µM [activator, single point] | –
26 | Cc1ccc(S(=O)(=O)C2(C(=O)Nc3ccc(Br)cc3)CC2)cc1 | inconclusive: 12.6 µM [activator, single point] | –
27 | COc1ccccc1-c1nnc2n(CCc3ccccc3)c(=O)c3ccccc3n12 | inconclusive: 4.47 µM [activator, full curve] | –
28 | Cc1ccc(NC(=O)Cc2ccc([N+](=O)[O-])cc2)c(Br)c1 | inconclusive: 2.82 µM [activator, partial curve] | –
29 | O=C1CC(c2nnc(Cc3ccc(Cl)cc3)o2)CN1c1ccccc1 (stereo unspecified) | inconclusive: 20 µM [activator, partial curve] | –
30 | CCCc1nc(SCC(=O)c2ccccc2)c2c(=O)n(C)c(=O)n(C)c2n1 | active: 14.1 µM | –
31 | CCCCc1ccc(S(=O)(=O)NC(=O)C2(C)CCN2C(=O)C/C=C/c2ccccc2)cc1 (stereo unspecified) | – | inactive: 7.58%
32 | Cc1nc(S(=O)(=O)c2cccc(Cl)c2)nc2c1CCC2 | active: 14.1 µM | –
33 | CN(C)S(=O)(=O)c1ccc2c(c1)N(CC(=O)NCc1cccc(Br)c1)C(=O)CS2 | – | inactive: 19.2%
34 | CC(=O)c1ccc(NC(=S)NNC(=O)c2ccccc2[N+](=O)[O-])cc1 | inconclusive: 0.316 µM [activator, full curve, poor fit] | –
35 | CCn1nc(NC(=O)c2ccncc2)c2cc3ccccc3nc21 | inconclusive: 35.5 µM [activator, partial curve] | –
36 | COc1ccc(C(=O)OCC(=O)NC2CCCCCC2)c(OC)c1 | inconclusive: 17.8 µM [activator, single point] | –
37 | Cn1ncc(Cl)c1C(=O)N1CCN(c2ccc(Cl)c(Cl)c2)CC1 | active: 12.6 µM | –
38 | Cc1ccc(C)c(CN2C(=O)c3ccccc3S(=O)(=O)c3ccc(C(=O)N4CCCC4)cc32)c1 | – | inactive: 21.6%
39 | CCN(c1ncnc2c1cnn2-c1cc(Cl)ccc1C)C1CCCCC1 | – | inactive: -10%
40 | COc1ccc(N2CC(C)(C)[C@H](CC(=O)Nc3ccc(Br)cc3)C2=O)cc1 | inconclusive: 22.4 µM [activator, partial curve, poor fit] | –
41 | Cc1ccc(C(=O)/C=C/Nc2ccccc2C(N)=O)cc1 | inconclusive: 31.6 µM [activator, single point] | –
42 | COc1ccc(C(=O)N/N=C\c2coc3ccc(Cl)cc3c2=O)cc1 | inconclusive: 3.16 µM [activator, partial curve] | –
43 | N#C/C(=C/c1cc(Cl)c(O)c(Cl)c1)C(=O)N1CCCCC1 | inconclusive: 3.55 µM [activator, single point] | –
44 | Cc1cc(N)ccc1N1CCCC1 | – | inactive: -8.36%

Row | Structure (SMILES) | Potency | growth rescue (activation)
45 | CCC(=O)N(C)C[C@H]1Oc2cc(-c3ccccc3F)ccc2S(=O)(=O)N([C@H](C)CO)C[C@H]1C | inconclusive: 12.6 µM [activator, partial curve, poor fit] | –
46 | CCCC(=O)NC(=S)Nc1ccccc1C(F)(F)F | inconclusive: 0.891 µM [activator, partial curve] | –
47 | COc1cccc(C2=CC(=O)C[C@H](c3ccc(F)cc3)C2)c1OC | inconclusive: 35.5 µM [activator, single point] | –
48 | C/C(=N\NC(=S)Nc1ccc(C)cc1)c1cc2ccccc2o1 | inconclusive: 15.8 µM [activator, single point] | –
49 | CCOC(=O)c1sc(N)c(C(=O)OCC)c1C | inconclusive: 2 µM [activator, partial curve] | –
50 | CCCN(CCC)C(=O)Cn1c(=O)n(-c2ccc(C)cc2)c(=O)c2ccc(C(=O)NCc3ccccc3Cl)cc21 | – | inactive: 24.2%
51 | CC(C)C[C@H]1CNC(=S)N1C[C@H]1CCCN1C[C@H](CC(C)C)N1C[C@H](CC(C)C)N(CCc2ccccc2)C1=S | – | inactive: 28%
52 | COc1ccc(-c2cn3c(C)c(C(=O)N4CCCc5ccccc54)sc3n2)cc1 | active: 25.1 µM | –
53 | CCc1c(C)nc2c(OC)cccc2c1Cl | inconclusive: 11.2 µM [activator, partial curve] | –
54 | S=c1[nH]nc(-c2ccc(Br)cc2)n1Cc1ccccc1 | inconclusive: 10 µM [activator, partial curve] | –
55 | CCC(CC)C(=O)OCC(=O)Nc1cc(OC)c([N+](=O)[O-])cc1C | inconclusive: 12.6 µM [activator, single point] | –
56 | COc1cccc(NC(=O)CSc2nc3c([nH]c4ccccc43)c(=O)n2-c2ccccc2)c1 | inconclusive: 5.01 µM [activator, full curve, poor fit] | –
57 | CCOC(=O)CSc1nc(N)c(C#N)c(-c2cccs2)c1C#N | inconclusive: 3.16 µM [activator, partial curve] | –
58 | Brc1ccc(-c2nnc3sc(CN4CCCCC4)cn23)cc1 | inconclusive: 0.562 µM [activator, full curve, poor fit] | –
59 | CCCn1cnc2cc(NCc3ccccn3)ccc21 | inconclusive: 0.562 µM [activator, full curve, poor fit] | –
60 | Cc1cc(NC(=O)c2ccccc2Cl)ccc1NC(=O)c1ccccc1 | inconclusive: 3.16 µM [activator, single point] | –
61 | COC(=O)c1ccc(C(=O)OC)c(NC(=S)N2CCOCC2)c1 | – | inactive: -1.14% [at 9.22 µM]
62 | CC(C)C[C@@H](COCc1cccc(Cl)c1)N1CCN(C(=O)c2ccc(C(F)(F)F)cc2)CCC1=O | inconclusive: 12.6 µM [activator, partial curve] | –
63 | Cc1cccc(C(=O)NCCCNC(=O)c2ccccn2)c1 | – | inactive: -4.71%
64 | CCOc1ccc2ncc(S(=O)(=O)c3ccc(C)cc3)c(N3CCC4(CC3)OCCO4)c2c1 | inconclusive: 35.5 µM [activator, single point] | –
65 | CCc1nc2sc3c(N4CCC(C)CC4)ncnc3c2c2c1CCCC2 | – | inactive: -3.14%
66 | C/C(N)=C(/C#N)C(=O)COc1ccc(Cl)cc1Cl | inconclusive: 12.6 µM [activator, single point] | –
